Assay [1] has as its system HSkMC (human skeletal muscle cells). Briefly: cytotoxicity call (relative viability < 0.9). Conditions: 10 µM.
The test system of assay [2] is HepG2. Briefly: cytotoxicity call (relative viability < 0.9). To be noted: 10 µM.
Assay [3] relates to S. aureus RN4220. Briefly: growth inhibition call (relative growth <= 0.2). To be noted: 50 µM.

The list shows a part of the results.

As for `C[C@@H]1CN([C@@H](C)CO)C(=O)c2cc(NS(=O)(=O)c3ccccc3)ccc2O[C@@H](C)CCCCO[C@@H]1CN(C)C(=O)CCC(F)(F)F`, the cytotoxicity call in assay [1] and in assay [2] was “inactive” each time. In assay [3], the growth inhibition call was “inactive”.
For the compound `Cc1noc(C)c1NC(=O)Nc1ccc2c(c1)C(=O)N([C@H](C)CO)C[C@@H](C)[C@@H](CN(C)S(=O)(=O)c1ccccc1)OCCCC[C@H](C)O2`, the cytotoxicity call in assay [1] and in assay [2] was “inactive” throughout. Besides, in assay [3], the growth inhibition call is “inactive”.
As to `CO[C@@H]1CN(C)C(=O)c2cc(NC(=O)NC3CCCCC3)ccc2OC[C@H](C)N(CCc2ccccc2)C[C@H]1C`, the cytotoxicity call in assay [1] was “inactive”. Moreover, the cytotoxicity call in assay [2] is “active”. Also, the growth inhibition call in assay [3] is “inactive”.
As to `Cc1cc(C(=O)Nc2cccc3c2O[C@@H](CN(C)S(=O)(=O)c2cn(C)cn2)[C@@H](C)CN([C@H](C)CO)C3=O)n(C)n1`, the cytotoxicity call in assay [1] and in assay [2] was “inactive” in each case. Also, the growth inhibition call in assay [3] was “inactive”.
As for `C[C@H](CO)N1C[C@H](C)[C@@H](CN(C)S(=O)(=O)c2ccccc2)Oc2c(NC(=O)c3ccncc3)cccc2C1=O`, the cytotoxicity call in assay [1] and in assay [2] was “inactive” throughout. In addition, in assay [3], the growth inhibition call is “inactive”.
Turning to `CCc1cc(=O)oc2c(C)c(O[C@@H]3O[C@H](CO)[C@@H](O)[C@H](O)[C@H]3O)ccc12`, the cytotoxicity call in assay [1] is “active”. In assay [2], the cytotoxicity call is “inactive”. Further, the growth inhibition call in assay [3] is “inactive”.
`C[C@@H]1CN([C@@H](C)CO)C(=O)c2cc(NC(=O)Cc3ccccc3)ccc2O[C@H]1CN(C)Cc1ccc(Cl)c(Cl)c1`: the cytotoxicity call in assay [1] and in assay [2] was “inactive” each time. The growth inhibition call in assay [3] was “inactive”.
Consider `Cc1ccc(S(=O)(=O)N[C@H]2C=C[C@H](CC(=O)NCCN3CCCCC3)O[C@@H]2CO)cc1`, for which the cytotoxicity call in assay [1] and in assay [2] was “inactive” in each case. Moreover, the growth inhibition call in assay [3] was “inactive”.
Regarding `C[C@@H]1CCCCO[C@@H](CN(C)Cc2ccc(Cl)c(Cl)c2)[C@H](C)CN([C@@H](C)CO)C(=O)c2cc(NC(=O)Cc3ccccc3)ccc2O1`, the cytotoxicity call in assay [1] was “inactive”. The cytotoxicity call in assay [2] is “active”. Moreover, the growth inhibition call in assay [3] is “inactive”.
With `C[C@H]1CN([C@@H](C)CO)C(=O)c2cc(NC(=O)c3ccncc3)ccc2O[C@@H]1CN(C)S(=O)(=O)c1cccs1`, the cytotoxicity call in assay [1] and in assay [2] was “inactive” in each case. For the same compound, the growth inhibition call in assay [3] is “inactive”.
As to `C[C@@H]1CN([C@H](C)CO)C(=O)Cc2cc(NC(=O)NC3CCCCC3)ccc2O[C@H]1CN(C)C(=O)Nc1cccc2ccccc12`, the cytotoxicity call in assay [1] and in assay [2] was “inactive” each time. Also, the growth inhibition call in assay [3] is “inactive”.
Take `C[C@H](CO)N1C[C@H](C)[C@@H](CN(C)C(=O)c2cccc(F)c2)Oc2cc(-c3ccncc3)ccc2S1(=O)=O`: the cytotoxicity call in assay [1] and in assay [2] was “inactive” each time. For the same compound, the growth inhibition call in assay [3] is “inactive”.
Consider `C[C@H]1CN([C@@H](C)CO)C(=O)c2cccc(NC(=O)Nc3ccc4c(c3)OCO4)c2O[C@@H]1CN(C)S(C)(=O)=O`, for which the cytotoxicity call in assay [1] and in assay [2] was “inactive” throughout. For the same compound, the growth inhibition call in assay [3] was “inactive”.
For the compound `COc1ccc(S(=O)(=O)Nc2ccc3c(c2)C(=O)N([C@@H](C)CO)C[C@H](C)[C@@H](CN(C)Cc2ccc(Cl)c(Cl)c2)OCCCC[C@H](C)O3)cc1`, the cytotoxicity call in assay [1] was “inactive”. Moreover, the cytotoxicity call in assay [2] was “active”. Moreover, the growth inhibition call in assay [3] is “inactive”.
Regarding `C[C@@H]1CN([C@@H](C)CO)S(=O)(=O)c2ccc(C#Cc3cccnc3)cc2O[C@H]1CN(C)CC1CCOCC1`, the cytotoxicity call in assay [1] and in assay [2] was “inactive” each time. The growth inhibition call in assay [3] is “inactive”.
For `C[C@@H]1CN([C@@H](C)CO)C(=O)Cc2cc(NC(=O)C3CCCCC3)ccc2O[C@H]1CN(C)S(C)(=O)=O`, the cytotoxicity call in assay [1] and in assay [2] was “inactive” each time. Also, the growth inhibition call in assay [3] was “inactive”.
Take `COc1ccc(-c2coc3c(O)c(O)c(OC)cc3c2=O)cc1`: in assay [1], the cytotoxicity call is “inactive”. The cytotoxicity call in assay [2] is “active”. Besides, the growth inhibition call in assay [3] is “inactive”.
Turning to `C[C@H](CO)N1C[C@H](C)[C@@H](CN(C)S(=O)(=O)c2ccc(F)cc2)Oc2c(NS(=O)(=O)c3ccccc3)cccc2C1=O`, the cytotoxicity call in assay [1] and in assay [2] was “inactive” in each case. Further, in assay [3], the growth inhibition call is “inactive”.
For `C[C@@H]1CCCCO[C@H](CN(C)C(=O)Nc2cccc3ccccc23)[C@H](C)CN([C@H](C)CO)C(=O)c2cc(NS(=O)(=O)c3ccc(Cl)cc3)ccc2O1`, the cytotoxicity call in assay [1] was “inactive”. In addition, the cytotoxicity call in assay [2] was “active”. In addition, the growth inhibition call in assay [3] was “inactive”.
On to `Cl.N[C@H](Cc1ccccc1)C(=O)O`, for which the cytotoxicity call in assay [1] and in assay [2] was “inactive” in each case. In addition, in assay [3], the growth inhibition call is “inactive”.
For `O=C(C[C@H]1C[C@@H]2c3cc(NS(=O)(=O)c4ccc(F)cc4)ccc3O[C@@H]2[C@@H](CO)O1)NC1CCCC1`, the cytotoxicity call in assay [1] and in assay [2] was “inactive” throughout. In addition, the growth inhibition call in assay [3] was “inactive”.
With `C[C@H](CO)N1C[C@H](C)[C@@H](CN(C)C(=O)c2ccncc2)OCCCC[C@H](C)Oc2ccc(NS(=O)(=O)c3cn(C)cn3)cc2C1=O`, the cytotoxicity call in assay [1] and in assay [2] was “inactive” in each case. In assay [3], the growth inhibition call was “inactive”.
With `Cn1c(=O)n(C)c2cc(S(=O)(=O)N3CC[C@H]4CNC[C@H]43)ccc21`, the cytotoxicity call in assay [1] and in assay [2] was “inactive” each time. Moreover, the growth inhibition call in assay [3] was “inactive”.
As for `COc1ccc(C#Cc2ccc([C@@H]3[C@H]4CN(S(=O)(=O)c5cn(C)cn5)CCCCN4[C@H]3CO)cc2)cc1`, the cytotoxicity call in assay [1] and in assay [2] was “inactive” each time. Moreover, in assay [3], the growth inhibition call is “inactive”.
As for `C[n+]1ccccc1C=NO.[Cl-]`, the cytotoxicity call in assay [1] and in assay [2] was “inactive” throughout. The growth inhibition call in assay [3] is “inactive”.
As to `C[C@H](CO)N1C[C@H](C)[C@H](CN(C)CC2CC2)OCCCC[C@H](C)Oc2ccc(NC(=O)Nc3ccc(C(F)(F)F)cc3)cc2C1=O`, the cytotoxicity call in assay [1] was “inactive”. Moreover, the cytotoxicity call in assay [2] was “active”. Moreover, the growth inhibition call in assay [3] is “inactive”.
Regarding `O=C(C[C@H]1C[C@@H]2c3cc(NS(=O)(=O)c4ccc(F)cc4)ccc3O[C@@H]2[C@H](CO)O1)NCc1ccncc1`, the cytotoxicity call in assay [1] and in assay [2] was “inactive” each time. Also, in assay [3], the growth inhibition call is “inactive”.
Consider `C[C@@H]1CN([C@@H](C)CO)C(=O)c2cc(NC(=O)Nc3cccc4ccccc34)ccc2O[C@@H](C)CCCCO[C@H]1CN(C)C(=O)Cc1ccccc1`, for which the cytotoxicity call in assay [1] and in assay [2] was “inactive” throughout. Also, the growth inhibition call in assay [3] is “inactive”.

These data come from the antibiotic and cytotoxicity screens of Wong et al. (2023).
